Experimental data reported in article PMC4336329 (PLoS ONE, 2015).
Among all 310,000 compounds or so, about 14,000 (4.5%) showed an effect of 50% or more. Effects have a minus sign here. The list shows a part of the results.

Target: human ether-à-go-go-related gene (hERG) potassium channel (human, UniProt Q12809)
Experiment: primary screen, population patch clamp on CHO cells stably expressing hERG
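Note: peak tail current of the secondary pulse compared with the same well before compound.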

human ether-à-go-go-related gene (hERG) potassium channel, sequence (Q12809 whole entry, looked up): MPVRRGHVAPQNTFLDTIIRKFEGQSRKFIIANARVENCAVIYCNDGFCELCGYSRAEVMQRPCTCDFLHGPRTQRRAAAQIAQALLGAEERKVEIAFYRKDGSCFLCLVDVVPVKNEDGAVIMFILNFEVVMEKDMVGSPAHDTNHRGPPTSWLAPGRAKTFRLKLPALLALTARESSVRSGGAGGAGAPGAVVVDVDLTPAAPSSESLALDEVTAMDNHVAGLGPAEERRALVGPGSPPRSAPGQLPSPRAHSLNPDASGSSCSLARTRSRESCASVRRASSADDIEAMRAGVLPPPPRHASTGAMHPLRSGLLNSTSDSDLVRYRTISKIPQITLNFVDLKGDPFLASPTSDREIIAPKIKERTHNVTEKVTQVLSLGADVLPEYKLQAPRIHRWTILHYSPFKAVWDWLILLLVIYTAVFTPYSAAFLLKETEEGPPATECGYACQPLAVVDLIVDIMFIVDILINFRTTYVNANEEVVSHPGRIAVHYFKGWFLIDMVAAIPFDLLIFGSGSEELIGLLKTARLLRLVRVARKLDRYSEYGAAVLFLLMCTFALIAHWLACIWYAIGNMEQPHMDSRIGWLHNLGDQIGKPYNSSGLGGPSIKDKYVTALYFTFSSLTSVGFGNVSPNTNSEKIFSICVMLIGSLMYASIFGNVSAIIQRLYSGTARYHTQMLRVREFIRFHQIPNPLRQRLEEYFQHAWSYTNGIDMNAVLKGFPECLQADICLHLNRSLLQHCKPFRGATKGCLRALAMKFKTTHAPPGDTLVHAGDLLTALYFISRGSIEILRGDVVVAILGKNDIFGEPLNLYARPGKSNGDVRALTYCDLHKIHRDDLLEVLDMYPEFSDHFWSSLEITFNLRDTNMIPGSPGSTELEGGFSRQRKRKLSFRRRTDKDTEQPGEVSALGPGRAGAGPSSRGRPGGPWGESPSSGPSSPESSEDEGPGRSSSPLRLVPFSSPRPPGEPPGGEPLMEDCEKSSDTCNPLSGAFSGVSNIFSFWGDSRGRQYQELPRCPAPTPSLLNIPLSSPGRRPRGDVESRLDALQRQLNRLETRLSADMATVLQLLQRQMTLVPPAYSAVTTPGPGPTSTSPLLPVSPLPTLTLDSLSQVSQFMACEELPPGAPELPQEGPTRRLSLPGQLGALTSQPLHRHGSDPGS

Question: How did the “hERG current change (%, negative = inhibition) at 10uM” value turn out when `COc1ccc(-c2nn(-c3ccccc3)cc2C(=O)NC2CCCCC2C)cc1` (centres unmarked) was run?
Answer: 6.61%

Question: How did the “hERG current change (%, negative = inhibition) at 10uM” value turn out when `Nc1cnc(Br)cc1Br` was run?
Answer: -10.3%

Question: For `COc1cc(C(C)=O)ccc1OCC(O)CN1CCN(c2ccc(F)cc2)CC1` (centres unmarked), which “hERG current change (%, negative = inhibition) at 10uM” value is on record?
Answer: -39%

Question: With `Cc1ccc(SCC(=O)OCC(=O)NCCCc2ccccc2)cc1` as the molecule, how does the “hERG current change (%, negative = inhibition) at 10uM” value read?
Answer: 9.34%

Question: With `CS(=O)(=O)N(CC(O)CON=C1c2ccccc2-c2ccccc21)c1ccc(F)cc1` (centres unmarked) as the molecule, how does the “hERG current change (%, negative = inhibition) at 10uM” value read?
Answer: 8.83%

Question: With `CCOC(=O)Cc1csc(NC(=O)c2cnc3sc(C)cn3c2=O)n1` as the molecule, how does the “hERG current change (%, negative = inhibition) at 10uM” value read?
Answer: -35%

Question: With `O=c1cc(C(F)(F)F)[nH]c2ccc(C(F)(F)F)cc12` as the molecule, how does the “hERG current change (%, negative = inhibition) at 10uM” value read?
Answer: 12.5%

Question: For `COc1ccccc1CNC(=O)c1cccc(S(=O)(=O)N(C)c2ccccc2)c1`, which “hERG current change (%, negative = inhibition) at 10uM” value is on record?
Answer: -23.5%

Question: `CCOC(=O)C1CCCN(C(=O)c2cc(Cl)ccc2NC(=O)C2=C(C)OCCS2)C1` (centres unmarked) was tested. Which “hERG current change (%, negative = inhibition) at 10uM” value did it give?
Answer: 12.3%

Question: How did the “hERG current change (%, negative = inhibition) at 10uM” value turn out when `Cc1cc(OCC(=O)Nc2cnn(CCCC(=O)O)c2)ccc1[N+](=O)[O-]` was run?
Answer: 35.6%

Question: How did the “hERG current change (%, negative = inhibition) at 10uM” value turn out when `COc1ccc(-n2c(C)cc(/C=N/Nc3nnc(C)n3N)c2C)cc1.Cl` was run?
Answer: 11.8%

Question: How did the “hERG current change (%, negative = inhibition) at 10uM” value turn out when `O=c1c2ccccc2nc(N2CCN(c3ccccc3)CC2)n1Cc1ccccc1` was run?
Answer: -15.4%

Question: For `Cc1ccc(OCCN2CCOCC2)cc1C`, which “hERG current change (%, negative = inhibition) at 10uM” value is on record?
Answer: 12.8%

Question: For `CCCCCCCOc1ccc(OC(=O)c2ccncc2)cc1`, which “hERG current change (%, negative = inhibition) at 10uM” value is on record?
Answer: 14.7%

Question: `CC(C)(C)C(CCl)C(=O)NN=C(c1ccccc1)c1ccccc1` (centres unmarked) was tested. Which “hERG current change (%, negative = inhibition) at 10uM” value did it give?
Answer: 5.54%

Question: For `O=C(CN1CC(c2ccccc2)CC1=O)NCc1ccc(F)cc1` (centres unmarked), which “hERG current change (%, negative = inhibition) at 10uM” value is on record?
Answer: -3.65%

Question: With `CCC(Sc1nccn1C)C(=O)Nc1ccc(Cl)cn1` (centres unmarked) as the molecule, how does the “hERG current change (%, negative = inhibition) at 10uM” value read?
Answer: 5.78%

Question: `COc1cc(OC)cc(C(=O)NC(C(=O)OCn2nnc3ccccc3c2=O)C(C)C)c1` (centres unmarked) was tested. Which “hERG current change (%, negative = inhibition) at 10uM” value did it give?
Answer: -21.4%

Question: For `CN1CN=C(N[N+](=O)[O-])N(Cc2ccco2)C1`, which “hERG current change (%, negative = inhibition) at 10uM” value is on record?
Answer: 16.3%

Question: How did the “hERG current change (%, negative = inhibition) at 10uM” value turn out when `O=C(Nc1cccc(Cl)c1)Nc1cccc(C(=O)O)c1` was run?
Answer: 17.7%

Question: Which “hERG current change (%, negative = inhibition) at 10uM” value does the source give for `COc1ccc(C(=O)C2CCCN(Cc3ccc(C)s3)C2)cc1OC` (centres unmarked) here?
Answer: -71.6%

Question: How did the “hERG current change (%, negative = inhibition) at 10uM” value turn out when `CCOC(=O)c1sc(NNC(=O)c2ccc(C)cc2)nc1C` was run?
Answer: -18.5%

Question: `CC1CCCCN1S(=O)(=O)c1ccc2c(c1)C(C)(C)C(=O)N2C` (centres unmarked) was tested. Which “hERG current change (%, negative = inhibition) at 10uM” value did it give?
Answer: 1.72%

Question: With `CC(=O)Nc1nc(SCC(=O)NCC2CCCO2)[nH]c(=O)c1NC(=O)c1cccs1` (centres unmarked) as the molecule, how does the “hERG current change (%, negative = inhibition) at 10uM” value read?
Answer: 16.3%

Question: Which “hERG current change (%, negative = inhibition) at 10uM” value does the source give for `COc1ccc2c(c1)CCc1cn3nc(C)cc3nc1-2` here?
Answer: 13.1%

Question: With `C[C@H](NC(=O)Cn1cncn1)c1ccccc1` as the molecule, how does the “hERG current change (%, negative = inhibition) at 10uM” value read?
Answer: 20.4%

Question: Which “hERG current change (%, negative = inhibition) at 10uM” value does the source give for `C=CCn1c(-c2ccc(OC)cc2)nc2ccccc21` here?
Answer: -17.1%

Question: With `Fc1ccc2nc(Nc3ccccc3)sc2c1` as the molecule, how does the “hERG current change (%, negative = inhibition) at 10uM” value read?
Answer: 11%

Question: For `COc1ccc(C(CNC(=O)CCNC(=O)c2ccccc2OC)N2CCCC2)cc1` (centres unmarked), which “hERG current change (%, negative = inhibition) at 10uM” value is on record?
Answer: -14.1%

Question: Which “hERG current change (%, negative = inhibition) at 10uM” value does the source give for `COC(=O)N/N=C/c1c[n+]([O-])c2ccccc2[n+]1[O-]` here?
Answer: 18.9%

Question: With `O=C(Nc1ccccc1)Nc1cccc(-c2cn3cccnc3n2)c1` as the molecule, how does the “hERG current change (%, negative = inhibition) at 10uM” value read?
Answer: 36%

Question: `CCOc1ccc(-c2nc(=S)[nH][nH]2)cc1` was tested. Which “hERG current change (%, negative = inhibition) at 10uM” value did it give?
Answer: 17.5%

Question: Which “hERG current change (%, negative = inhibition) at 10uM” value does the source give for `Cc1ccc(Nc2cc(-n3nc(C)cc3C)ncn2)cc1` here?
Answer: 12.9%

Question: How did the “hERG current change (%, negative = inhibition) at 10uM” value turn out when `OCCNC(=S)Nc1ccc2nsnc2c1` was run?
Answer: 42.4%

Question: Which “hERG current change (%, negative = inhibition) at 10uM” value does the source give for `COc1ccccc1N1CCN(C(=O)CCC(=O)Nc2nnc(C(C)C)s2)CC1` here?
Answer: -10.1%

Question: Which “hERG current change (%, negative = inhibition) at 10uM” value does the source give for `COC(=O)c1cn(C(=O)c2ccccc2)c2ccccc12` here?
Answer: -7.75%

Question: For `COc1ccc(OC)c(S(=O)(=O)NCc2ccc(N3CCN(C)CC3)cc2)c1`, which “hERG current change (%, negative = inhibition) at 10uM” value is on record?
Answer: 0.373%

Question: `Cc1cccc(Nc2nc(N)c([N+](=O)[O-])c(N3CCN(C)CC3)n2)c1` was tested. Which “hERG current change (%, negative = inhibition) at 10uM” value did it give?
Answer: -48%

Question: `Cc1cc(C)n(Cc2ccc(C(=O)Nc3ccc(Br)cc3C)o2)n1` was tested. Which “hERG current change (%, negative = inhibition) at 10uM” value did it give?
Answer: -19.4%

Question: `COc1ccc(-c2[nH]ncc2CN(C)Cc2cccnc2)c(F)c1` was tested. Which “hERG current change (%, negative = inhibition) at 10uM” value did it give?
Answer: -1.66%

Question: Which “hERG current change (%, negative = inhibition) at 10uM” value does the source give for `CCOC(=O)c1c(-c2ncc(C(F)(F)F)cc2Cl)noc1C` here?
Answer: 0.575%

Question: How did the “hERG current change (%, negative = inhibition) at 10uM” value turn out when `Cc1nnc(NC(=O)CSc2nnc(Cc3ccccc3)n2-c2ccccc2)s1` was run?
Answer: 6.1%

Question: For `COc1ccc(-c2cc(-c3ccc(OC)cc3)c(C#N)c(SC)n2)cc1`, which “hERG current change (%, negative = inhibition) at 10uM” value is on record?
Answer: 5.38%

Question: How did the “hERG current change (%, negative = inhibition) at 10uM” value turn out when `COc1ccc(/C=C/C(=O)Nc2c(C)nn(C)c2C)cc1COc1ccc(Cl)cc1Br` was run?
Answer: 10.5%

Question: How did the “hERG current change (%, negative = inhibition) at 10uM” value turn out when `CC(=O)Nc1ccc(-c2nnn(CC(=O)c3ccccc3)n2)cc1Cl` was run?
Answer: 6.77%

Question: For `N/C(CCS(=O)(=O)c1ccc(Cl)cc1)=N\OC(=O)c1ccccc1Cl`, which “hERG current change (%, negative = inhibition) at 10uM” value is on record?
Answer: -29.2%

Question: `COc1ccc(CN2[C@@H](CC(=O)O)c3ccc(C(F)(F)F)cc3S2(=O)=O)cc1` was tested. Which “hERG current change (%, negative = inhibition) at 10uM” value did it give?
Answer: -14%

Question: `COc1ccccc1NC(=O)Oc1ccc(NC(=O)c2ccco2)cc1` was tested. Which “hERG current change (%, negative = inhibition) at 10uM” value did it give?
Answer: 0.869%

Question: How did the “hERG current change (%, negative = inhibition) at 10uM” value turn out when `O=C(Nc1ccccc1C(=O)N1CCCCC1)C1CCCCC1` was run?
Answer: 5.76%

Question: `O=C(C1=CC=CN2CCS(=O)(=O)N=C12)N1CCN(c2cccc(Cl)c2)CC1` was tested. Which “hERG current change (%, negative = inhibition) at 10uM” value did it give?
Answer: 25.5%

Question: How did the “hERG current change (%, negative = inhibition) at 10uM” value turn out when `CCSc1nnc(NC(=O)C(C)C)s1` was run?
Answer: -4.84%

Question: `C=C1CCC[C@]2(C)C[C@H]3OC(=O)C(CN4CCCCC4CO)[C@H]3CC12` (some centres unmarked) was tested. Which “hERG current change (%, negative = inhibition) at 10uM” value did it give?
Answer: 11.7%

Question: `O=C(O)CC12CC3CC(C1)CC(n1ncc(NCc4ccc(F)cc4Cl)c(Cl)c1=O)(C3)C2` was tested. Which “hERG current change (%, negative = inhibition) at 10uM” value did it give?
Answer: 18.3%

Question: For `CCC(CC)CN1C(N(C)C)=NC[C@@H]1CC(C)C`, which “hERG current change (%, negative = inhibition) at 10uM” value is on record?
Answer: -4.65%

Question: Which “hERG current change (%, negative = inhibition) at 10uM” value does the source give for `O=[N+]([O-])c1ccc(N2CCCCC2)cn1` here?
Answer: 8.92%

Question: With `COc1ccc(C(c2sc3nc(C)nn3c2O)N2CCC(O)CC2)cc1OC` (centres unmarked) as the molecule, how does the “hERG current change (%, negative = inhibition) at 10uM” value read?
Answer: 1.72%

Question: Which “hERG current change (%, negative = inhibition) at 10uM” value does the source give for `Cc1ccc(CC(=O)CCc2ccccc2)cc1` here?
Answer: 14.4%

Question: For `O=C(Cc1ccc(Cl)cc1)NC(=S)Nc1ccccc1O`, which “hERG current change (%, negative = inhibition) at 10uM” value is on record?
Answer: 16.8%

Question: How did the “hERG current change (%, negative = inhibition) at 10uM” value turn out when `CCC(C(=O)N1CCc2ccccc2C1)n1nc(C)n2c(cc3occc32)c1=O` (centres unmarked) was run?
Answer: -18.9%
